Test results published in the supplement of paper PMC3334620.
In all, about 33,000 sequences were measured (“E-score (-0.5 to 0.5)”: median about -0.041, highest 2% from about 0.37 on). This is one part of the list.

molecular target: T1, Ecm22 (UniProt Q05958); experiment: PBM E-score (8-mer binding enrichment) (E-score (-0.5 to 0.5)); higher = stronger / more preferred TF binding; most listed sequences are background and not binding sites; conditions: protein concentration: 200 nM; construct: GST-full length
T1 sequence: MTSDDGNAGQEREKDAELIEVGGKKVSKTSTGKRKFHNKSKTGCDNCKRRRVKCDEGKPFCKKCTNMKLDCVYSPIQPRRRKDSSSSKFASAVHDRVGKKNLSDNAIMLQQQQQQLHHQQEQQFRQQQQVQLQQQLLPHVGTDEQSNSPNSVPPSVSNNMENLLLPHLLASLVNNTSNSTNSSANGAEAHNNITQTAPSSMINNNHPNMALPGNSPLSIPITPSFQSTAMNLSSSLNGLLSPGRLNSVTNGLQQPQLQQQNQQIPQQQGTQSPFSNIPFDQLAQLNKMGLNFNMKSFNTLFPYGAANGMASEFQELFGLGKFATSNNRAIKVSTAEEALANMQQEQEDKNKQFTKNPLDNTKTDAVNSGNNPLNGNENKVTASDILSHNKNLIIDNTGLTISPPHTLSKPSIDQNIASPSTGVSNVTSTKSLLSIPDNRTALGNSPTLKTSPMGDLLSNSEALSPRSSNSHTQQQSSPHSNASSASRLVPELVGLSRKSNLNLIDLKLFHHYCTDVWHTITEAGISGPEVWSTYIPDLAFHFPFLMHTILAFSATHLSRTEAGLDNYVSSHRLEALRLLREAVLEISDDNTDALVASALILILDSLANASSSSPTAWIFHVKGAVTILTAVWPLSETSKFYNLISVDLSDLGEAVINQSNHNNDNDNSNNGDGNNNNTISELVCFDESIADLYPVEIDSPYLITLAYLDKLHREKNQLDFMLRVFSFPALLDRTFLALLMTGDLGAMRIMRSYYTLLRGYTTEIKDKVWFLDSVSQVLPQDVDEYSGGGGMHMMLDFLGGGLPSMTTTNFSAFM
Procedure, shortened: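 Full-length yeast transcription factors or their DNA-binding domains, GST-tagged and expressed with PURExpress, were applied at about 100-200 nM to universal all-10-mer Agilent arrays. These arrays had been made double-stranded by primer extension on fresh or once-stripped slides. Detection used fluorescent anti-GST, normalisation used masliner, and E-scores for ungapped eight-base words pooled with reverse complements came from the Universal PBM Analysis Suite.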

Row | Sequence | PBM E-score
1 | AAGATATA | 0.0923
2 | CCTGTGTA | 0.00294
3 | CTGCAACA | -0.0776
4 | ATCTATCA | 0.0318
5 | AGAGATAC | 0.0669
6 | CCAAGAGG | -0.362
7 | AGAGCAAA | -0.174
8 | CAGGAGAG | -0.0937
9 | AGGGTGTC | -0.149
10 | GTACGTAC | 0.349
11 | GTCATTCA | -0.121
12 | GCAAAACA | -0.232
13 | AATACTAT | -0.166
14 | ACCCGTAA | 0.179
15 | CGCGGGGA | 0.0295
16 | CCCTCGAC | -0.0332
17 | CGTCGGCC | -0.00808
18 | ATGACAAG | -0.0717
19 | GAGCCTTA | -0.0855
20 | GACTTGGC | -0.155
21 | ACGCAATG | -0.0846
22 | CGGCCATA | 0.091

Row | Sequence | PBM E-score
23 | ATAGCACC | -0.111
24 | CGCCATAG | -0.058
25 | ATGTAAAG | -0.1
26 | AGGTCTTA | 0.00054
27 | CAGAGTCG | 0.0671
28 | CAGCATAG | -0.174
29 | GAGACCTC | -0.0652
30 | CACGGTGA | -0.066
31 | CTCGGCGC | 0.101
32 | ACCTCGCA | 0.224
33 | AACAGCAA | -0.162
34 | CGCCAAGC | -0.143
35 | ACACACGC | -0.0134
36 | AACCGTGA | -0.0809
37 | CTCAGAAA | -0.11
38 | CTTACCCC | -0.219
39 | ACTTGTTG | -0.0521
40 | AGTACGCA | -0.0459
41 | AAGAGACG | 0.0921
42 | CAGACTAA | -0.0751
43 | ATGTACCG | -0.0255
44 | AAGGAGTG | -0.131

Row | Sequence | PBM E-score
45 | ACCAATAT | 0.132
46 | CGGCTCTA | 0.0789
47 | AAGATCGC | 0.096
48 | CCGGGAAG | -0.27
49 | CGATACAG | 0.13
50 | CCAATTTC | 0.107
51 | AGAGTATG | -0.0186
52 | CAGTAGCC | -0.137
53 | AAATCGCT | -0.0583
54 | AGGTTAAC | 0.0561
55 | GAACGAAA | 0.43
56 | CATTGACG | -0.00128
57 | CCGTAGCA | 0.165
58 | CCAGTGGG | -0.292
59 | ATAGAGTC | -0.0166
60 | ACCTTTGC | -0.181
61 | GGTACTTA | -0.167
62 | ACACGTCC | -0.218
63 | CCGTCCGA | 0.0141
64 | GACAGACA | 0.114
65 | AACATGTC | 0.0692
66 | ATTGCGGC | -0.138

Row | Sequence | PBM E-score
67 | AGTTTATC | 0.0904
68 | CTTTGCCA | -0.0873
69 | CTGGAGGC | -0.281
70 | ATTATCTG | 0.00684
71 | ACCGCAAA | 0.185
72 | AATTCTTA | -0.143
73 | CCCGGGAA | -0.0348
74 | CCATCGTA | 0.428
75 | ATTCGGGA | 0.0205
76 | AATAGAGG | 0.0162
77 | CCGCCGAG | -0.0513
78 | AAGTTTGG | -0.0477
79 | ATCTTACG | 0.292
80 | CGACAACG | 0.245
81 | AACTGCGG | 0.0437
82 | ATTAACGA | 0.402
83 | ATCCGCTC | 0.218
84 | ATCGCCAT | -0.00876
85 | GTCGCGTA | 0.309
86 | AAACGCGA | 0.313
